Laboratory results as given in the supplement of paper PMC12217912.
The other results are listed elsewhere or left out. The full chains were built here from the parent and the listed change. Inactive controls read about 0.05.

B1: TEV protease; numbered along this chain (parent)
chain: MGESLFKGPRDYNPISSSICHLTNESDGHTTSLYGIGFGPFIITNKHLFRRNNGTLVVQSLHGVFKVKDTTTLQQHLVDGRDMIIIRMPKDFPPFPQKLKFREPQREERICLVTTNFQTKSMSSMVSDTSCTFPSGDGIFWKHWIQTKDGQCGSPLVSTRDGFIVGIHSASNFTNTNNYFTSVPKNFMELLTNQEAQQWVSGWRLNADSVLWGGHKVFMVKPEEPFQPVKEATQL

Variants of: B1
Assay: raw area under fraction-flipped curve 0-4 h after induction (AUC4h, not background-subtracted), DNA-recorder readout of cleavage of the substrate (dimensionless); higher = more cleavage of the substrate by the protease variant
Settings: temperature: 34 °C; time window: 0-4 h after rhamnose induction
Experimental: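 In vivo DNA recorder in E. coli TOP10(DE3) ΔrhaA at 34 °C. Each TEVp single-site mutant (parent TEVp 0) is paired with a single-site variant of the 7-mer TEVs (canonical ENLYFQ|S). The substrate sits between flexible linkers in a Bxb1-sfGFP-TEVs-SsrA fusion, so cleavage stabilises Bxb1 and speeds flipping of a recombination array, read by NGS. The value is the raw area under the fraction-flipped curve over 0-4 h after rhamnose induction (AUC4h), with ≥20 reads per time point. It is not background-subtracted; inactive controls average about 0.047.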
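Note: Bxb1 expression induced with 0.2% (w/v) L-rhamnose at OD600 near 0.5, cultures sampled hourly, flipped fraction per protease–substrate barcode pair counted by paired-end Illumina sequencing.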

Variant | area with substrate ECLYFQS | area with substrate EDLYFQS | area with substrate EFLYFQS | area with substrate EGLYFQS | area with substrate EHLYFQS | area with substrate EILYFQS | area with substrate EKLYFQS | area with substrate ELLYFQS | area with substrate EMLYFQS | area with substrate EPLYFQS | area with substrate EQLYFQS | area with substrate ERLYFQS | area with substrate ESLYFQS | area with substrate EVLYFQS | area with substrate EWLYFQS | area with substrate ETLYFQS | area with substrate EYLYFQS | area with substrate EELYFQS | area with substrate EALYFQS
S16W | 0.12 | 0.14 | 0.0986 | 0.0947 | 0.115 | 0.0936 | 0.109 | 0.0903 | 0.161 | 0.13 | 0.116 | 0.104 | 0.128 | 0.0927 | 0.109 |  |  |  | 
T30K | 0.113 |  | 0.0791 |  |  | 0.0467 |  | 0.0966 | 0.111 | 0.122 | 0.122 |  | 0.0893 | 0.0946 |  | 0.0984 | 0.0778 |  | 
P9V | 0.116 |  |  | 0.0954 |  | 0.0916 |  |  |  | 0.12 | 0.169 |  | 0.104 | 0.101 |  |  |  | 0.133 | 
P9G | 0.103 |  |  |  | 0.0908 | 0.0868 | 0.0929 |  |  | 0.0832 | 0.115 | 0.0817 | 0.111 | 0.0897 | 0.0922 | 0.125 | 0.0893 | 0.129 | 
D79I | 0.0659 |  |  | 0.0743 | 0.107 | 0.0779 |  |  |  |  | 0.0996 |  | 0.0702 |  |  |  |  |  | 
Y34Q | 0.085 |  |  | 0.062 | 0.0634 | 0.0706 | 0.0809 |  | 0.0414 |  |  | 0.0848 | 0.0696 | 0.0912 | 0.0487 |  |  |  | 
Y34I | 0.0594 | 0.0943 | 0.105 | 0.0783 | 0.0896 | 0.0663 | 0.0848 |  |  |  |  |  | 0.0855 |  |  |  |  |  | 
C20H | 0.0411 |  | 0.051 | 0.0494 | 0.0524 | 0.0337 | 0.0519 | 0.0393 |  | 0.049 | 0.0486 | 0.048 | 0.0625 | 0.0409 |  |  |  | 0.0626 | 
H76A | 0.104 |  | 0.0628 | 0.0849 | 0.0935 | 0.071 |  |  | 0.104 |  | 0.0973 | 0.0908 | 0.0765 | 0.0881 | 0.0844 | 0.116 | 0.0707 | 0.0928 | 
H76Q | 0.106 | 0.0962 | 0.0806 |  |  |  | 0.138 |  | 0.102 | 0.108 |  | 0.1 | 0.0903 |  |  |  | 0.125 |  | 
Q234R | 0.103 | 0.115 | 0.128 |  |  | 0.082 |  | 0.0994 | 0.0975 |  | 0.118 | 0.12 | 0.092 | 0.15 |  | 0.108 | 0.104 |  | 0.126
F41L | 0.0684 |  | 0.0933 | 0.112 | 0.117 | 0.105 | 0.113 |  | 0.109 |  | 0.0879 |  | 0.0961 | 0.0886 | 0.108 | 0.126 | 0.117 | 0.121 | 
E25T | 0.123 | 0.118 |  |  |  | 0.075 | 0.0824 |  |  |  |  | 0.0947 | 0.0917 | 0.0858 |  |  |  |  | 
Q97S | 0.0997 |  |  | 0.123 | 0.118 |  |  |  |  |  |  | 0.0991 | 0.116 | 0.101 |  |  |  |  | 
V220A | 0.128 | 0.152 |  |  |  | 0.0972 | 0.097 |  |  |  |  | 0.0775 | 0.109 | 0.0938 | 0.0991 |  |  | 0.117 | 0.135
E223R | 0.113 | 0.0997 | 0.0597 | 0.086 | 0.094 | 0.0577 | 0.0842 | 0.0718 |  | 0.108 | 0.0967 | 0.0933 | 0.0822 |  |  | 0.0972 | 0.0849 | 0.0913 | 0.111
E223C | 0.0952 | 0.131 |  | 0.089 |  | 0.0994 |  | 0.0919 | 0.104 |  | 0.0781 | 0.0825 | 0.0918 | 0.0838 | 0.0913 |  |  | 0.0821 | 0.107
I86E | 0.0373 | 0.0274 |  | 0.0363 | 0.0339 | 0.022 | 0.037 |  | 0.0417 |  | 0.0408 |  | 0.0443 | 0.042 | 0.0034 |  | 0.048 | 0.0627 | 
F49C | 0.0745 | 0.0557 | 0.0779 | 0.0601 |  | 0.0643 | 0.0584 | 0.039 | 0.0659 |  | 0.0719 | 0.0597 | 0.065 | 0.0568 |  |  | 0.0687 | 0.0715 | 
N24L | 0.112 | 0.112 |  | 0.0926 | 0.104 | 0.113 | 0.0994 | 0.101 | 0.116 | 0.117 | 0.101 | 0.118 |  | 0.0993 | 0.0968 |  |  |  | 
I85M | 0.0834 | 0.123 |  |  | 0.13 | 0.0983 | 0.0976 | 0.0889 | 0.14 | 0.135 | 0.122 |  | 0.0954 | 0.0845 |  |  | 0.0987 |  | 
I85V | 0.0897 | 0.0881 | 0.144 | 0.0994 |  | 0.0796 | 0.105 | 0.0719 | 0.0978 | 0.138 | 0.072 | 0.0926 | 0.1 | 0.0888 |  | 0.105 |  |  | 
I85D | 0.0465 | 0.0419 |  |  |  | 0.0453 | 0.0424 |  |  | 0.0316 | 0.0311 |  | 0.0464 | 0.0483 | 0.0682 |  |  |  | 
D82W | 0.0545 | 0.0563 | 0.0439 | 0.0559 | 0.0557 | 0.0614 | 0.0379 |  | 0.052 | 0.0651 | 0.0517 |  |  | 0.0517 |  |  | 0.0497 |  | 
M88I | 0.101 |  |  |  | 0.0972 |  | 0.0938 |  | 0.1 |  | 0.127 |  | 0.126 | 0.103 | 0.0703 | 0.101 | 0.0987 | 0.129 | 
F226K | 0.111 | 0.145 |  |  | 0.12 | 0.122 | 0.111 |  | 0.117 | 0.124 | 0.143 | 0.0652 | 0.101 | 0.102 | 0.11 | 0.109 | 0.101 | 0.102 | 0.127
F226A | 0.0673 |  |  | 0.0989 |  | 0.108 | 0.102 |  |  | 0.111 | 0.0887 |  | 0.112 |  |  | 0.121 |  | 0.149 | 0.122
G54Y | 0.0663 | 0.0432 |  | 0.0671 | 0.102 | 0.0616 | 0.0429 |  |  |  | 0.0854 | 0.0871 | 0.067 |  |  | 0.205 | 0.0721 |  | 
I19C | 0.115 | 0.13 |  | 0.121 |  | 0.11 | 0.0734 | 0.111 | 0.108 |  | 0.126 | 0.133 | 0.0982 | 0.0737 | 0.108 |  |  | 0.113 | 
I84C | 0.0905 |  |  |  |  | 0.117 |  |  | 0.0906 | 0.0947 |  | 0.098 | 0.0859 |  | 0.114 |  |  | 0.142 | 
